SMILES strings stand for the structures. Over roughly 13,000 compounds, “IFI” has its median near 4; the highest 2% begin near 17. The list shows a part of the results.

This assay can be described thus: GSK_TCMDC: Inhibition Frequency Index (IFI). The number of non-kinase HTS assays where a compound showed > 50 % inhibition, expressed as a percentage of the number of such assays in which the compound was tested (-0 is zero). The assay is classed as functional.
`CC(C)(C(=O)Nc1ccc(C2CCC(NCC3CC3)CC2)c(Cl)c1)c1cccc(OC(F)F)c1` (stereo not drawn) came in with an IFI of 23.4%.

For `NC1CCN(c2nc(NCCCc3ccc(O)cc3)nc(NCc3ccccc3-c3ccc(C(F)(F)F)cc3)n2)CC1`, the IFI was found to be 16.9%. `Cc1cc(N(C)C)nc(Nc2ccc(NC(=O)Nc3ccccc3)cc2)n1` yielded an IFI of 6%. To `CN(C)CCNC(=O)c1ccc2c(c1)n(C1CCN(S(=O)(=O)c3ccc(-c4ccccc4)cc3)CC1)c(=O)n2CC1CCCCC1` belongs 7.69%.

The compound `FC(F)(F)c1ccc2[nH]ccc(=NN=CC=Cc3ccccc3)c2c1` gave an IFI of 1.45%. Take `O=C(/C=C/c1ccc(Cl)cc1)NCCCCCN1CCCN(C(=O)Nc2ccc(F)c(Cl)c2)CC1`: the IFI was 10.9%. `CN(c1ccccc1)c1ccnc(NC(=N)Nc2ccc(Cl)cc2)n1` returned an IFI of 18.4%. Under `N#Cc1ccc(NC2(C(=O)N3CCN(c4cccc(Cl)c4)CC3)CC2)c2ccccc12` stands -0%. As for `COc1ccc(CCC(C)N2CC(N)C(c3cn(C)c4cnccc34)C2)cc1` (stereo not drawn), the IFI was determined as 0%.

Compound `Cc1cc2ncn(-c3ccnc(N4CCN(CCCN5CCCC5)CC4)n3)c2cc1C` returned an IFI of 5.26%. `O=C(NCC1CCN(Cc2cccc(F)c2)C1)c1cc(-c2cccc(C(F)(F)F)c2)cs1` (stereo not drawn) returned an IFI of 9.43%. `c1ccc2[nH]c(-c3ccc(-c4ccc(CN5CCCCC5)cc4)s3)nc2c1` showed an IFI of 4.13%.

`COc1ccc(-c2cc(C(=O)Nc3ccc4[nH]c(-c5ccccc5)nc4c3)[nH]n2)cc1` showed an IFI of 3.39%. Consider `COc1ccc(-c2nc(NC(=O)CS(=O)(=O)c3ccc(F)cc3)sc2C)cc1`, for which the IFI was 5.31%. `Cc1ccc(NC(=O)NCCCCCN2CCC(c3c[nH]c4ccccc34)CC2)cc1I` displayed an IFI of 5.34%.

Compound `Cc1ccc(NS(=O)(=O)c2ccc(-c3ccccc3)cc2)c(Cn2cnc(N3CCCNCC3)cc2=O)c1` yielded an IFI of 5.04%. In turn, `c1ccc2c(c1)ncc1c3ccccc3[nH]c21` came in with an IFI of 1.5%. As for `O=S(=O)(NCCN1CCCC1)c1ccc(-c2cccc(CNCc3ccc(F)cc3)c2)cc1`, the IFI was determined as 10.4%.

Turning to `CCc1n[nH]c(C(=O)NC2CCN(CC3(c4ccc(OC)cc4)CCCCC3)CC2)c1C`, the IFI came out at 6%. Take `Cc1cc(-c2cccc(CNC3CCN(C)CC3)c2)ccc1S(=O)(=O)NCc1ccccc1`: the IFI was determined as 10.4%. For the compound `Cc1ccc(S(=O)(=O)N(C)c2ccccc2C(=O)Nc2ccccc2Oc2ccccc2)cc1`, the IFI came to 1.64%.

In turn, `COc1ccc(NC(=O)[C@H](CC(C)C)Nc2cc(C)nc(NCc3cccc(C)c3)n2)cc1` displayed an IFI of 9.52%.

Compound `O=C(Nc1ccc(Cl)cc1)Nc1cccc(-c2ccc(-c3nc4cc(F)ccc4[nH]3)cc2)c1` had an IFI of 3.96%. Consider `CCOC(=O)C(=O)N1c2ccc(OCC)cc2-c2c(ssc2=S)C1(C)C`, for which the IFI worked out at 4.44%.

`CCOC(=O)c1ccc(NC(=O)Nc2ccc(-c3ccc(-c4nc5cccc(C)c5[nH]4)s3)cc2)cc1` had an IFI of 2.02%. The compound `CCCCCCn1c2c(c(=N)c3c1CCC3)CCCC2` showed an IFI of 6.72%. In the case of `O=C(NCCCc1ccccc1)c1csc(C2CCCN(C(=O)c3ccc(O)c(-c4cccc5ccccc45)c3)C2)n1` (stereo not drawn), the IFI was found to be 2.24%. To `COc1ccc2nccc([C@@H](O)CN3CCC(NC(=O)C(c4cc5ccccc5s4)N4CCN(c5ccccc5OC)CC4)CC3)c2c1` (stereo partly drawn) belongs 2.08%. In turn, `CC(=O)Nc1cccc(C(=O)Nc2ccc(-c3ccc(-c4nc5cccc(C)c5[nH]4)s3)cc2)c1` returned an IFI of 7.34%.

In turn, `CCN(CC)CCNc1nccc(N(C)c2ccc(NC(=O)Nc3cc(C(F)(F)F)ccc3F)cc2)n1` registered an IFI of 9.56%. `CN(C)CCOc1cc(NC(=O)Nc2ccc(-c3ccccc3)cc2)ccc1I`: the IFI was determined as 7.58%. `COc1ccc2nccc([C@@H](O)CN3CCC(NC(=O)C(c4cc5ccccc5o4)N4CCN(c5ccccc5)CC4)CC3)c2c1` (stereo partly drawn) had an IFI of 3.47%. Compound `CCOc1cc(Cc2cnc(N)nc2N)cc(OCC)c1-n1cccc1` registered an IFI of 0.72%. Under `COc1cc(/C=C/C(=O)NC2CCC(N3CCC(c4ccccc4C)CC3)CC2)cc(OC)c1` (stereo not drawn) stands 10%. As for `Cc1ccc2[nH]c(-c3cc(-c4ccc(CO)cc4)cnc3N)nc2c1`, the IFI is 5.51%. `CCCc1cc(OC)c(CC2c3cccc(O)c3CCN2C)cc1OC` (stereo not drawn) showed an IFI of 3.82%. The compound `COc1ccc(CCNCCCCCNCCCc2ccc(Cl)cc2)cc1OC` displayed an IFI of 2.8%. To `COc1cc(F)c2ncc(Cl)c([C@H](O)CN3CCC(NCc4ccc5c(n4)NC(=O)CO5)CC3)c2c1` belongs 1.77%; to `CNCCNCc1cccc(-c2ccc(-c3nc4cc(C(F)(F)F)ccc4[nH]3)cc2)c1`, 7%. As to `O=C(Nc1ccc(Cl)c(Cl)c1)C1CCC(=O)N1[C@@H](Cc1ccccc1)C(=O)NCCc1ccc(Cl)cc1` (stereo partly drawn), the IFI was 1.47%. To `Cc1cccc2nc(-c3cccc(-c4ccc(NC(=O)c5ccc(=O)[nH]n5)cc4)c3)[nH]c12` belongs 1.8%; to `CC(Nc1nncc(-c2cccc(F)c2)n1)c1ccc(F)cc1` (stereo not drawn), 4.76%. Consider `CCNc1cc(C(=O)N[C@@H](Cc2ccccc2)[C@H](O)CNC(C)(C)CCCC(C)C)cc(N2CCCCS2(=O)=O)c1`, for which the IFI is 1.46%. As for `CCn1c(-c2nonc2N)nc2c(-c3ccccc3)ncc(OCCCCNCCc3ncc[nH]3)c21`, the IFI is 11.3%. Turning to `CN1CCC[C@H]1COc1ccc(CN2CC[C@H](NC(=O)c3ccc(Cl)c(Cl)c3)C2)c2ccccc12`, the IFI came out at 9.68%.

The compound `NC1CCN(Cc2ccc(-c3ccc(-c4nc5ccccc5[nH]4)s3)cc2)C1` (stereo not drawn) came in with an IFI of 4.23%. `CN1CCCC(CN2CCN(Cc3ccc(-c4cccc(-c5nc6ccccc6[nH]5)c4)cc3)CC2)C1` (stereo not drawn) registered an IFI of 8.33%. The compound `N#Cc1cccc(C(=O)NC2CCN(CCCCCNC(=O)/C=C/c3ccc(Cl)c(Cl)c3)CC2)c1` gave an IFI of 3.94%.

Regarding `Cc1cccnc1CNc1nccc2c(C)c(C)[nH]c12`, the IFI was 3.85%.

In turn, `CN1C(=O)C(=NN=C(S)N2CCOCC2)c2ccccc21` returned an IFI of 6.94%.

On to `Cc1ccc(NC(=O)c2ccc(CN3CCCN(Cc4cccc(O)c4)CC3)cc2)cc1`, for which the IFI is 9.52%. On to `Cc1ccc2[nH]c3c(NCCN(C)C)ncnc3c2c1`, for which the IFI is -0%.

`O=C(Nc1cccc(F)c1)N[C@H]1CCN(CCCCCNC(=O)C2CC2c2ccc(Cl)c(Cl)c2)C1` (stereo partly drawn): the IFI came to 19.4%.

Take `CN1CCN(CCCNc2ncc3c(-c4ccc(NC(=O)Nc5cc(C(F)(F)F)ccc5F)c(F)c4)nn(C)c3n2)CC1`: the IFI is 9.35%. With `Cc1cc2nc(-c3ccc(/C=C/C(=O)NCCCc4ccccc4)cc3)[nH]c2cc1C`, the IFI turned out to be 3.79%. In turn, `CC(C)(C)OC(=O)NCc1ccc(Nc2nnc(-c3ccc(OCC(=O)NC[C@@H]4CC[C@H]5C[C@@H]4C5(C)C)c([N+](=O)[O-])c3)o2)cc1` registered an IFI of 2.99%. To `Cn1cc(CN2CCC(OC(c3ccccc3)c3ccc(Cl)cc3)CC2)cn1` (stereo not drawn) belongs 4.9%. Compound `COc1ccc(NC(=O)c2ccc3cc4ccccc4cc3c2)cc1N1CCN(C)CC1` came in with an IFI of 11.2%. In turn, `c1cncc(CCNCc2cccc(-c3csc(-c4nc5ccccc5[nH]4)c3)c2)c1` gave an IFI of 2.33%.

Take `CC(=O)c1c(Nc2c(C)cc(C)cc2C)oc(C)cc1=O`: the IFI stood at 1.37%.

`Cc1ccc(NC(=O)Nc2ccc(Cl)cc2)cc1-c1ccc(C(=O)Nc2ccncc2)cc1` gave an IFI of 21.1%. On to `NC1CCN(Cc2cccc(-c3ccc(-c4nc5ccccc5[nH]4)cc3)c2)C1` (stereo not drawn), for which the IFI stood at 2.82%. For the compound `CO/C(=C\C=C\c1cc2cc(Cl)c(Cl)cc2[nH]1)C(=O)NCCN1CCCCC1`, the IFI was found to be 2.94%. In turn, `NCC1CCCN1Cc1ccc(-c2ccc(-c3nc4cc(C(F)(F)F)ccc4[nH]3)cc2)cc1` (stereo not drawn) yielded an IFI of 9.9%. Under `O=C(Nc1ccc(F)cc1)c1nc2ccccc2nc1Cl` stands 2.38%. As to `O=c1ccc2ccc(F)cc2n1CCN1CCC(NCc2ccc(-c3ccccn3)s2)CC1`, the IFI came out at 3.45%. `OC(c1ccccc1)C1CN(CCc2ccccc2)CCC1(O)c1ccccc1` (stereo not drawn) displayed an IFI of 1.61%. With `Cc1cccc(OC(C)C(=O)Nc2cc(C(F)(F)F)ccc2N2CCOCC2)c1` (stereo not drawn), the IFI was 3.03%. `CS(=O)(=O)N1CC2(CCN(CCC(NC(=O)/C=C/c3ccccc3)c3ccc(Cl)c(Cl)c3)CC2)c2ccccc21` (stereo not drawn): the IFI turned out to be 4.17%.

Turning to `CC(C)C[C@H](NC(=O)[C@H](Cc1ccccc1)NC(=O)CCN1C(=O)COc2ccc(C(=O)O)cc21)C(=O)NC(CC1CCCCC1)C(O)CC(=O)NCCCn1ccnc1` (stereo partly drawn), the IFI was -0%.

`CS(=O)(=O)Nc1cccc(-c2cnc3[nH]cc(-c4cccc(CN)c4)c3c2)c1` registered an IFI of 10.9%. As to `COc1cc(Nc2nccc(N3CCC(NC(=O)Nc4ccc5c(c4)OCO5)C3)n2)cc(OC)c1OC` (stereo not drawn), the IFI stood at 3.08%. `CCN(CC)Cc1cc(Nc2c3ccc(Cl)cc3nc3cccc(OC)c23)ccc1O` yielded an IFI of 12.2%. For the compound `CC(C)N1CCC(N(Cc2ccc(-c3ccc(C(F)(F)F)cc3)cc2)C(=O)Cn2c(CCc3cccc(F)c3F)cc(=O)c3c2CCC3)CC1`, the IFI was determined as 5.71%. To `COc1ccc2nccc([C@@H](O)CN3CCC(NC(=O)/C=C/c4ccc(Cl)c(C(F)(F)F)c4)CC3)c2c1` belongs 1.49%. As for `Clc1ccccc1OCc1ccccn1`, the IFI is -0%. For `COc1c(C2CCN(CCCCNC(=O)c3ccc(-c4ccc(C(F)(F)F)cc4)c(C(=O)OC(C)C)c3)CC2)ccc2c1CCCC2`, the IFI is 7.27%. Under `Cc1[nH]c(C)c(-c2ccc(OCCn3cnc(Cl)c3Cl)cc2)c(=O)c1Br` stands 1.89%; under `CN1CCCC1CCNCc1ccc(-c2ccc(CNCCc3ccccc3)cn2)cc1` (stereo not drawn), 4.76%; under `Nc1nc(O)c2c(n1)CCc1c(Br)cccc1-2`, 2.31%. Compound `CNCCNCc1ccc(-c2ccc(-c3nc4cc(F)ccc4[nH]3)cc2)cc1` registered an IFI of 13.9%. `O=C(Nc1ccc(OC2CCN(Cc3ccccc3)CC2)c(Cl)c1)c1ccco1` registered an IFI of 3.28%. To `CCCCNC(=O)[C@H](CC1CCCCC1)NC(=O)c1ccc(O)c(-c2ccc(OC)cc2)c1` belongs 2.1%; to `CN(C)Cc1ccc2nc(-c3cccc(Cc4cc(Cl)ccc4OCc4ccc(Cl)cc4F)n3)[nH]c2c1`, 17.1%; to `Cc1ccccc1Cn1ccc2c3c(N)nc(N)nc3ccc21`, 4.72%. `O=[N+]([O-])c1cc2c(cc1C=NNc1nc(=Nc3ccccc3)[nH]c(=Nc3ccccc3)[nH]1)OCO2`: the IFI is -0%. As to `COc1ccc(NC(=O)[C@H](Cc2ccccc2)Nc2cc(C)nc(NCCc3ccccc3OC)n2)cc1`, the IFI came out at 10.3%. `CS(=O)(=O)NCCCNCc1ccc(-c2ccc(-c3nc4cc(C(F)(F)F)ccc4[nH]3)cc2)cc1` gave an IFI of 5.94%.

The values above are taken from ChEMBL document CHEMBL1157539, “Thousands of chemical starting points for antimalarial lead identification” (Nature, 2010).
